Laboratory results reported in PubChem BioAssay AID588855 (National Center for Advancing Translational Sciences (NCATS), 2011).
Values joined by “and” are separate entries in the source; they are usually repeats but may differ in a detail not shown here. Identical values can stand only once. Out of some 410,000 compounds screened, about 5,000 (1.2%) were called active. This list was built around the results that the source calls inconclusive (neither active nor inactive); the mix of calls is not that of the screen. The call rests on the fitted dose curve; in most records, active means well fitted inhibition curve with a large enough effect; inconclusive means small, poorly fitted or top-dose-only effect; inactive means no such curve, though single readings can be large or run the other way. Where the call is inconclusive, the potency comes from a doubtful curve fit.
On the % scale 0 is the no-effect control and ±100 the full control effect; potency means the concentration at half of the fitted maximal effect; tags describe the fitted curve by direction and shape.

Test: qHTS for Inhibitors of TGF-b; further: nearly all actives have a fitted effect of over 65% in size
Settings: HepG2 CAGA-GFP TGF-b/SMAD3 reporter, GFP fluorescence, 18 h, TGF-beta stimulated, 500 pg/mL final; series mostly up to 46.1 µM; activity, negative = inhibition: at the top concentration
Procedure, shortened: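 HEPG2 CAGA-GFP, 1000 cells/well; 2 h settle, 37 C; cpd via pin tool; TGF-b 500 pg/mL final; 18 h, 37 C; GFP imaging ex488/em500-530; %Activity normalised to -TGF-b and +DMSO controls; CRC fit, curve class.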
For `COc1cc(/C=N/NC(=S)Nc2cccc(Cl)c2C)ccc1OCC(=O)N1CC(C)OC(C)C1` (stereo not given), the Potency was inconclusive: 35.5 µM [inhibitor, single point].
With `CC(C)(C)n1nnnc1C(c1cccnc1)N1CCN(C(=O)c2ccco2)CC1` (stereo not given) the Potency was inconclusive: 10 µM [inhibitor, partial curve].
With `O=C(CSc1nccn1Cc1ccc(F)cc1)Nc1nc2ccccc2s1` the Potency was inconclusive: 25.1 µM [inhibitor, single point].
In the case of `CCN(Cc1ccccc1)C(=O)C1CCN(S(=O)(=O)c2ccc3c(c2)CCCN3C(C)=O)CC1`, the Potency is reported as inconclusive: 14.1 µM [inhibitor, partial curve].
In the case of `CC(=O)c1sc(NC(=O)c2ccc(F)c(S(=O)(=O)N3CCOCC3)c2)nc1C`, the “activity, negative = inhibition” value is reported as inactive: -0.647%.
For `CC(C)CCn1c(SC(C)C#N)nc2ccccc2c1=O` (stereo not given), the “activity, negative = inhibition” value was inactive: 1.26%.
For `CCCCC(=O)NC(c1ccccc1OC)c1ccc2cccnc2c1O` (stereo not given), the Potency was inconclusive: 2.51 µM [inhibitor, partial curve, poor fit].
With `CCN(CC)c1cc(C)c2cc(NC(=O)/C=C/c3cc(OC)c(OC)c(OC)c3)ccc2n1` the Potency was active: 15.8 µM.
In the case of `Cc1cc(C)nc(NC(=O)/C=C/c2ccc3c(c2)OCO3)c1`, the “activity, negative = inhibition” value is reported as inactive: -5%.
With `Cc1ccc(-n2ncc3c(Nc4cccc(Cl)c4)ncnc32)c(C)c1` the Potency was inconclusive: 35.5 µM [inhibitor, single point].
For `Cc1ccc(C(=O)Nc2nc(-c3ccccn3)cs2)cc1S(=O)(=O)N1CCOCC1`, the Potency was inconclusive: 10 µM [inhibitor, partial curve].
With `COc1ccccc1-c1sc2ccccc2c1-c1ccc(C(C)=O)cc1` the Potency was inconclusive: 11.2 µM [inhibitor, single point].
With `O=C(/C=C/c1cccc(F)c1)Nc1ccc(S(=O)(=O)N2CCOCC2)cc1` the “activity, negative = inhibition” value was inactive: 4.76%.
In the case of `Cc1ccc(S(=O)(=O)CCC(=O)Nc2nnc(-c3ccccc3S(C)(=O)=O)o2)cc1`, the Potency is reported as inconclusive: 7.94 µM [inhibitor, partial curve, poor fit].
With `Cc1ccc(-c2noc(CCC(=O)Nc3ccc4c(c3)OCO4)n2)cc1` the “activity, negative = inhibition” value was inactive: 0%.
With `CCOC(=O)c1c(C)n(-c2ccc(OC)cc2)c2ccc(OC(=O)COc3ccccc3)cc12` the Potency was inconclusive: 22.4 µM [inhibitor, single point].
With `O=C(Nc1ccccc1N1CCCCC1)C1CCN(C(=O)c2ccc(Cl)cc2)CC1` the Potency was inconclusive: 15.8 µM [inhibitor, partial curve, poor fit].
For `CC(=O)Nc1ccc(-c2csc(NC(=O)Cc3ccccc3F)n2)cc1`, the “activity, negative = inhibition” value was inactive: -11.3%.
In the case of `COc1ccccc1C(=O)NC1(C(F)(F)F)C(=O)Nc2c1c(=O)[nH]c(=O)n2-c1ccc(F)cc1` (stereo not given), the “activity, negative = inhibition” value is reported as inactive: 21.5%.
In the case of `Cc1cccc(Cn2c(-c3cccc(Br)c3)nc3ccccc32)c1`, the Potency is reported as inconclusive: 11.2 µM [inhibitor, partial curve].
With `Cc1nn(C)c(C)c1/C=C/C(=O)c1ccc(Cl)cc1Cl` the Potency was inconclusive: 35.5 µM [inhibitor, single point].
With `O=C(Oc1ccc(Br)cc1C(=S)N1CCCCC1)c1cc([N+](=O)[O-])cc([N+](=O)[O-])c1` the Potency was inconclusive: 35.5 µM [inhibitor, single point].
For `CC12C(=O)N(Cc3ccco3)C(=O)C1C1c3ccccc3C2c2ccccc21` (stereo not given), the “activity, negative = inhibition” value was inactive: 6.22%.
With `CCCCn1c(N)c(N(CCC(C)C)C(=O)c2[nH]c(C)c(C(=O)OCC)c2C)c(=O)[nH]c1=O` the Potency was inconclusive: 35.5 µM [inhibitor, single point].
With `O=C(COc1c(Br)cc(Br)cc1Br)N/N=C/c1ccco1` the “activity, negative = inhibition” value was inactive: 0.241%.
In the case of `Cc1cc(C)n(CC(=O)Nc2ccc3c(c2)OCO3)c(=O)c1C#N`, the “activity, negative = inhibition” value is reported as inactive: -12.8%.
In the case of `Cc1ccccc1OCCC(=O)N1CCN(S(=O)(=O)c2ccc(F)cc2)CC1`, the “activity, negative = inhibition” value is reported as inactive: 2.07%.
With `CCCN(C(=O)c1ccco1)c1nnc(-c2cccc(C)c2)s1` the “activity, negative = inhibition” value was inactive: 1.25%.
For `Cn1ccnc1SCC(=O)c1ccc2ccccc2c1`, the “activity, negative = inhibition” value was inactive: 25.9%.
In the case of `COc1ccc(CNC(=S)NC2CCCC2)cc1`, the Potency is reported as inconclusive: 2.51 µM [inhibitor, full curve].
In the case of `O=C(CN(Cc1ccccc1)S(=O)(=O)c1ccc(F)cc1)NCCC1=CCCCC1`, the Potency is reported as inconclusive: 3.55 µM [inhibitor, single point].
For `O=C(Nc1ccc(F)cc1)c1ccc2c(=O)n3c(nc2c1)CCCCC3`, the Potency was inconclusive: 2.82 µM [inhibitor, partial curve, poor fit].
With `O=C(NCC(c1cccs1)S(=O)(=O)c1ccccc1)c1ccc(C(F)(F)F)cc1` (stereo not given) the Potency was inconclusive: 14.1 µM [inhibitor, single point].
With `COc1ccccc1-c1noc(-c2cc(OC)c(OC)c(OC)c2)n1` the “activity, negative = inhibition” value was inactive: 0.687%.
For `Cc1ccc(/C=C/C(=O)c2ccc(O)cc2)cc1`, the Potency was inconclusive: 35.5 µM [inhibitor, single point].
With `CCOC(=O)c1c(C)[nH]c(C)c1C(=O)COC(=O)/C=C/c1ccc(OC(F)F)cc1` the Potency was inconclusive: 8.91 µM [inhibitor, partial curve].
With `O=C(NC12CC3CC(CC(C3)C1)C2)c1ccc(=O)oc1` the Potency was inconclusive: 2.82 µM [inhibitor, partial curve, poor fit].
With `COc1ccc(OC(C)C(=O)N(C)Cc2nc(-c3cccc(C)c3)no2)cc1` (stereo not given) the “activity, negative = inhibition” value was inactive: -10.7%.
In the case of `COc1ccc(Cl)cc1NC(=S)N1CCN(c2ccccn2)CC1`, the “activity, negative = inhibition” value is reported as inactive: 8.53%.
With `CSc1n[nH]c(N)c1S(=O)(=O)c1ccc(Cl)cc1` the Potency was inconclusive: 35.5 µM [inhibitor, partial curve, poor fit].
For `Cc1nn2c(C)c(C(=O)NC(C)c3ccccc3)cnc2c1-c1ccc(F)cc1` (stereo not given), the “activity, negative = inhibition” value was inactive: 3.26%.
In the case of `OCCNCc1cc(Br)ccc1OCc1ccc(Cl)cc1`, the Potency is reported as inconclusive: 17.8 µM [inhibitor, single point].
For `O=C(NCc1ccccc1)c1cc(C2CCCCN2C(=O)c2ccc(Cl)cc2)on1` (stereo not given), the “activity, negative = inhibition” value was inactive: -3.16%.
With `O=S1(=O)CCO[C@H]2Cc3ccccc3[C@H]2N1Cc1ccccc1Br` the Potency was inconclusive: 11.2 µM [inhibitor, partial curve] and inconclusive: 22.4 µM [inhibitor, single point].
For `COc1ccc(NC(=O)c2ccco2)cc1NC(=O)C(C)(C)Oc1ccc(Cl)cc1`, the Potency was inconclusive: 11.2 µM [inhibitor, partial curve, poor fit].
